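96-well plates; 48 h exposure; 5 concentrations. Endpoints by linear interpolation between flanking doses. Not reached: highest tested concentration assigned. TGI: total growth inhibition.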 Not every entry of the source has a single result; some have several. The list is limited to them. The source may hold further records. The tests behind the records often covered other concentration ranges, which the source does not state; some values may only mark the edge of a range.
What was measured:
Assay in all cases: NCI tumour cell line growth inhibition, 48 h
[1] = tested on: A498 renal
[2] = tested on: LXFL 529 NSCLC
[3] = tested on: M14 melanoma
[4] = tested on: RXF 393 renal
[5] = tested on: COLO 205 colon
[6] = tested on: XF 498 CNS
[7] = tested on: SK-MEL-2 melanoma
[8] = tested on: MOLT-4 leukemia
[9] = tested on: SR leukemia
[10] = tested on: IGROV1 ovarian
[11] = tested on: U251 CNS

SMILES	TGI [1]	TGI [2]	TGI [3]	TGI [4]	TGI [5]	TGI [6]	TGI [7]	TGI [8]	TGI [9]	TGI [10]	TGI [11]
COc1cc(C(=O)N[C@H]2CCc3cc(OC)c(OC)c(OC)c3-c3ccc(SC)c(=O)cc32)cc(OC)c1OC	756 nM and 34.7 nM	25 µM and 57.2 nM	44.5 nM and > 100 µM	22 nM and 26.4 µM	25 µM and 92.4 nM	25 µM and 82.2 nM	202 nM and 34.3 µM	–	–	–	–
CCCCCCNCCCNc1c2cc(OC)ccc2nc2cccc([N+](=O)[O-])c12	–	–	–	–	–	–	–	81.1 µM and 488 nM	75.6 nM and 12 µM	44.1 nM and 722 nM	1.47 µM and 140 nM

Source: PubChem BioAssay (NCI)
